Results reported in article PMC11928274 (Cell chemical biology, 2025).

Target: Hsc70 (HSPA8), biotinylated (human, UniProt P11142, biotin (BirA bulk kit))
Assay: flow cytometry on cells

UniProt P11142, sequence (P11142 whole entry): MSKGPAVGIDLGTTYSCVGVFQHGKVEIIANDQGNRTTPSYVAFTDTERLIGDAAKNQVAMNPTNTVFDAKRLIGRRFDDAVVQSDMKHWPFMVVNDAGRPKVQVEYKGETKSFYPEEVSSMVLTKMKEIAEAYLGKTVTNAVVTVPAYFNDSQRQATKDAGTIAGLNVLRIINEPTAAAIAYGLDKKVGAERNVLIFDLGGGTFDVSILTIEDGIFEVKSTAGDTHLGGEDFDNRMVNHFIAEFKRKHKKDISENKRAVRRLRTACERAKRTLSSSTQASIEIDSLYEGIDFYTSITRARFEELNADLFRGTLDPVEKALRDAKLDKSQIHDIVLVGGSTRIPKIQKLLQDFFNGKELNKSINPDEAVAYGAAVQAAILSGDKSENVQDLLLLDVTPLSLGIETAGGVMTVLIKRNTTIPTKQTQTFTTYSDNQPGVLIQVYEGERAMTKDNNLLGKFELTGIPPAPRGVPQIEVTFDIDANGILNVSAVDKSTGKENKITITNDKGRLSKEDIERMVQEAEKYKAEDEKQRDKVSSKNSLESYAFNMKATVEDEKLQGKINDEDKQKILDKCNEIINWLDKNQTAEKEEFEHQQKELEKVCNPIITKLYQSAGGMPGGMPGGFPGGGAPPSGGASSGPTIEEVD

binding result: binds
B1: DnaJB1 (human, native J-domain protein) (natural protein)
chain: MGKDYYQTLGLARGASDEEIKRAYRRQALRYHPDKNKEPGAEEKFKEIAEAYDVLSDPRKREIFDRYGEEGLKGSGPSGGSGGGANGTSFSYTFHGDPHAMFAEFFGGRNPFDTFFGQRNGEEGMDIDDPFSGFPMGMGGFTNVNFGRSRSAQEPARKKQ[left out - about 150 residues]PERIPQTSRTVLEQVLPI
